# The list shows a part of the results. Most values come without repeats; read them as rough.
# System: SkMel2
# Assay: cell count relative to DMSO control; melanoma cells; higher = more viable cells
# Details: library dose: standard library concentration; 72 h
# 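Note: cells treated in 1,536-well plates, then fixed and DAPI-stained, with nuclei counted from automated high-throughput microscope images.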
row,SMILES,cell count [%]
1,"CC1(C)NC(=O)N(c2ccc([N+](=O)[O-])c(C(F)(F)F)c2)C1=O [nilutamide] + COc1ccc(-c2ccc3c(N4CCOCC4)nc(N4C[C@@H](C)O[C@@H](C)C4)nc3n2)cc1CO [KU0063794] (first compound 5 µM, partner dose 0.1 µM)",91.4
2,"O=C(O)c1ccc(-c2c[nH]c3ncc(-c4ccccc4)cc23)cc1C1CCCC1 + COc1cc(N2CCC(N3CCN(C)CC3)CC2)ccc1Nc1ncc(Cl)c(Nc2ccccc2S(=O)(=O)C(C)C)n1 [NVP-TAE684] (first compound 0.8 µM, partner dose 0.4 µM)",67.1
3,"Cn1cncc1[C@@](N)(c1ccc(Cl)cc1)c1ccc2c(c1)c(-c1cccc(Cl)c1)cc(=O)n2C [tipifarnib] + CCCCCCCCCCCC1=C(O)C(=O)C=C(O)C1=O [Embelin] (first compound 0.05 µM, partner dose 6 µM)",71.3
4,"CC1(C)NC(=O)N(c2ccc([N+](=O)[O-])c(C(F)(F)F)c2)C1=O [nilutamide] + CCN(CC)CCCCNc1ncc2cc(-c3cc(OC)cc(OC)c3)c(NC(=O)NC(C)(C)C)nc2n1 [PD173074] (first compound 5 µM, partner dose 0.5 µM)",107
5,"C[C@@H]1CCN(C(=O)CC#N)C[C@@H]1N(C)c1ncnc2[nH]ccc12 + CCc1ccc(CCOc2ccc(CC3SC(=O)NC3=O)cc2)nc1 [pioglitazone] (first compound 5 µM, partner dose 10 µM)",84.5
6,"Cn1cncc1[C@@](N)(c1ccc(Cl)cc1)c1ccc2c(c1)c(-c1cccc(Cl)c1)cc(=O)n2C [tipifarnib] + Oc1cc(-c2nc(-c3ccccc3)[nH]c2-c2ccncc2)ccc1Cl [L779450] (first compound 0.05 µM, partner dose 1 µM)",24.7
7,"Cn1cncc1[C@@](N)(c1ccc(Cl)cc1)c1ccc2c(c1)c(-c1cccc(Cl)c1)cc(=O)n2C [tipifarnib] + COc1ccc(-c2ccc3c(N4CCOCC4)nc(N4C[C@@H](C)O[C@@H](C)C4)nc3n2)cc1CO [KU0063794] (first compound 0.05 µM, partner dose 0.1 µM)",64
8,"Cn1cncc1[C@@](N)(c1ccc(Cl)cc1)c1ccc2c(c1)c(-c1cccc(Cl)c1)cc(=O)n2C [tipifarnib] + CCN(CC)CCCCNc1ncc2cc(-c3cc(OC)cc(OC)c3)c(NC(=O)NC(C)(C)C)nc2n1 [PD173074] (first compound 0.05 µM, partner dose 0.5 µM)",71.8
9,"C[C@@H]1CCN(C(=O)CC#N)C[C@@H]1N(C)c1ncnc2[nH]ccc12 + Oc1nc(-c2ccc(C(F)(F)F)cc2)nc2c1CSCC2 [XAV939] (first compound 5 µM, partner dose 10 µM)",86.1
10,"O=C(Nc1cccc(Cl)c1)Nc1ncc(CCNc2ncnc3ccsc23)s1 + CCCCCCCCCCCC1=C(O)C(=O)C=C(O)C1=O [Embelin] (first compound 0.004 µM, partner dose 6 µM)",86.8
11,"COc1cc(Nc2ncc(F)c(Nc3ccc4c(n3)NC(=O)C(C)(C)O4)n2)cc(OC)c1OC [Tamatinib] + O=C(Nc1ccccc1)c1cc([N+](=O)[O-])ccc1Cl [GW9662] (first compound 2 µM, partner dose 10 µM)",54.7
12,"Cn1cncc1[C@@](N)(c1ccc(Cl)cc1)c1ccc2c(c1)c(-c1cccc(Cl)c1)cc(=O)n2C [tipifarnib] + N#Cc1c(O)c2c(-c3ccc(-c4ccccc4O)cc3)csc2[nH]c1=O [A769662] (first compound 0.05 µM, partner dose 10 µM)",79.7
13,"O=C(Nc1cccc(Cl)c1)Nc1ncc(CCNc2ncnc3ccsc23)s1 + COc1cc(N2CCC(N3CCN(C)CC3)CC2)ccc1Nc1ncc(Cl)c(Nc2ccccc2S(=O)(=O)C(C)C)n1 [NVP-TAE684] (first compound 0.004 µM, partner dose 0.4 µM)",73.1

# System: SkMel30
# Assay: as above
# Details: library dose: standard library concentration; 72 h
row,SMILES,cell count [%]
1,"CC1(C)NC(=O)N(c2ccc([N+](=O)[O-])c(C(F)(F)F)c2)C1=O [nilutamide] + CCc1ccc(CCOc2ccc(CC3SC(=O)NC3=O)cc2)nc1 [pioglitazone] (first compound 5 µM, partner dose 10 µM)",102
2,"O=C(Nc1cccc(Cl)c1)Nc1ncc(CCNc2ncnc3ccsc23)s1 + CC(C)CCN1c2nc(Nc3cc(F)c(O)c(F)c3)ncc2N(C)C(=O)C1C [BID1870] (first compound 0.004 µM, partner dose 1 µM)",63.2
3,"COc1cc(Nc2ncc(F)c(Nc3ccc4c(n3)NC(=O)C(C)(C)O4)n2)cc(OC)c1OC [Tamatinib] + N#Cc1c(O)c2c(-c3ccc(-c4ccccc4O)cc3)csc2[nH]c1=O [A769662] (first compound 2 µM, partner dose 10 µM)",93.9
4,"O=C(Nc1cccc(Cl)c1)Nc1ncc(CCNc2ncnc3ccsc23)s1 + COC(=O)c1sccc1S(=O)(=O)Nc1ccc(Nc2ccccc2)cc1OC [GSK0660] (first compound 0.004 µM, partner dose 5 µM)",80.8
5,"O=C(Nc1cccc(Cl)c1)Nc1ncc(CCNc2ncnc3ccsc23)s1 + c1cc(-c2cnn3cc(-c4ccc(OCCN5CCCCC5)cc4)cnc23)ccn1 [Dorsomorphin] (first compound 0.004 µM, partner dose 2 µM)",98.8
6,"CC1(C)NC(=O)N(c2ccc([N+](=O)[O-])c(C(F)(F)F)c2)C1=O [nilutamide] + COc1ccc2c(c1)CCC1C2CCC2(C)C(NCCCCCCN3C(=O)C=CC3=O)CCC12 [U73122] (first compound 5 µM, partner dose 2 µM)",96.6
7,"O=C(Nc1cccc(Cl)c1)Nc1ncc(CCNc2ncnc3ccsc23)s1 + Oc1cc(-c2nc(-c3ccccc3)[nH]c2-c2ccncc2)ccc1Cl [L779450] (first compound 0.004 µM, partner dose 1 µM)",73.7
8,"CC1(C)NC(=O)N(c2ccc([N+](=O)[O-])c(C(F)(F)F)c2)C1=O [nilutamide] + Cc1cc([N+](=O)[O-])ccc1NS(=O)(=O)c1cc(Cl)ccc1Cl [FH535] (first compound 5 µM, partner dose 5 µM)",98
9,"O=C(O)c1ccc(-c2c[nH]c3ncc(-c4ccccc4)cc23)cc1C1CCCC1 + CC(C)CCN1c2nc(Nc3cc(F)c(O)c(F)c3)ncc2N(C)C(=O)C1C [BID1870] (first compound 0.8 µM, partner dose 1 µM)",82.8
10,"Cn1cncc1[C@@](N)(c1ccc(Cl)cc1)c1ccc2c(c1)c(-c1cccc(Cl)c1)cc(=O)n2C [tipifarnib] + COc1cc(N2CCC(N3CCN(C)CC3)CC2)ccc1Nc1ncc(Cl)c(Nc2ccccc2S(=O)(=O)C(C)C)n1 [NVP-TAE684] (first compound 0.05 µM, partner dose 0.4 µM)",88.8
11,"O=C(O)c1ccc(-c2c[nH]c3ncc(-c4ccccc4)cc23)cc1C1CCCC1 + COc1ccc2c(c1)CCC1C2CCC2(C)C(NCCCCCCN3C(=O)C=CC3=O)CCC12 [U73122] (first compound 0.8 µM, partner dose 2 µM)",85.1
12,"C[C@@H]1CCN(C(=O)CC#N)C[C@@H]1N(C)c1ncnc2[nH]ccc12 + O=C(O)C(=O)Nc1sc2c(c1C(=O)O)CCNC2 [TCS401] (first compound 5 µM, partner dose 8.33333 µM)",121
13,"C[C@@H]1CCN(C(=O)CC#N)C[C@@H]1N(C)c1ncnc2[nH]ccc12 + CCCCCCCCCCCC1=C(O)C(=O)C=C(O)C1=O [Embelin] (first compound 5 µM, partner dose 6 µM)",103
14,"O=C(Nc1cccc(Cl)c1)Nc1ncc(CCNc2ncnc3ccsc23)s1 + COc1ccc(COc2ccc(Cc3cnc(N)nc3N)cc2OC)cc1 [GW2580] (first compound 0.004 µM, partner dose 5 µM)",95.9
15,"COc1cc(Nc2ncc(F)c(Nc3ccc4c(n3)NC(=O)C(C)(C)O4)n2)cc(OC)c1OC [Tamatinib] + COc1ccc2c(c1)CCC1C2CCC2(C)C(NCCCCCCN3C(=O)C=CC3=O)CCC12 [U73122] (first compound 2 µM, partner dose 2 µM)",96.1
16,"C[C@@H]1CCN(C(=O)CC#N)C[C@@H]1N(C)c1ncnc2[nH]ccc12 + O=C(Nc1ccccc1)c1cc([N+](=O)[O-])ccc1Cl [GW9662] (first compound 5 µM, partner dose 10 µM)",81.2
17,"C[C@@H]1CCN(C(=O)CC#N)C[C@@H]1N(C)c1ncnc2[nH]ccc12 + CC(C)CCN1c2nc(Nc3cc(F)c(O)c(F)c3)ncc2N(C)C(=O)C1C [BID1870] (first compound 5 µM, partner dose 1 µM)",71.8
18,"O=C(O)c1ccc(-c2c[nH]c3ncc(-c4ccccc4)cc23)cc1C1CCCC1 + Oc1cc(-c2nc(-c3ccccc3)[nH]c2-c2ccncc2)ccc1Cl [L779450] (first compound 0.8 µM, partner dose 1 µM)",84.7
19,"Cn1cncc1[C@@](N)(c1ccc(Cl)cc1)c1ccc2c(c1)c(-c1cccc(Cl)c1)cc(=O)n2C [tipifarnib] + O=S(=O)(c1ccccc1)N(CC(F)(F)F)c1ccc(C(O)(C(F)(F)F)C(F)(F)F)cc1 [T0901317] (first compound 0.05 µM, partner dose 7 µM)",92.5

# Reference: the supplement of paper PMC4604168 (melanoma cell lines)
